In all, about 230,000 compounds went through this assay and about 3,600 (1.6%) were called active. The shares of active, inactive and inconclusive entries below differ from those in the screen. Calls follow the shape of the dose curve; as a rule, active = well fitted inhibition curve with a large enough effect (not every such curve was filed as active); inconclusive = small, poorly fitted or top-dose-only effect, or another doubt; inactive = no such curve, though single readings can be large or run the other way. A potency beside an inconclusive call is a rough fit, not a confirmed value.
Target: Lysine-specific demethylase 4E (Homo sapiens) (UniProt B2RXH2)
Assay: qHTS Assay for Inhibitors of Human Jumonji Domain Containing 2E (JMJD2E)
Conditions: JMJD2E catalytic domain, FDH-coupled NADH fluorescence (FDH is formaldehyde dehydrogenase); series mostly up to 57.1 µM
Also: nearly all actives have a fitted effect of over 50% in size.
Potency is read from the fitted curve at half-maximal effect; tags tell the direction and shape of the fitted curve.

Sequence of UniProt B2RXH2 (B2RXH2 whole entry, looked up, the tested form may be a part): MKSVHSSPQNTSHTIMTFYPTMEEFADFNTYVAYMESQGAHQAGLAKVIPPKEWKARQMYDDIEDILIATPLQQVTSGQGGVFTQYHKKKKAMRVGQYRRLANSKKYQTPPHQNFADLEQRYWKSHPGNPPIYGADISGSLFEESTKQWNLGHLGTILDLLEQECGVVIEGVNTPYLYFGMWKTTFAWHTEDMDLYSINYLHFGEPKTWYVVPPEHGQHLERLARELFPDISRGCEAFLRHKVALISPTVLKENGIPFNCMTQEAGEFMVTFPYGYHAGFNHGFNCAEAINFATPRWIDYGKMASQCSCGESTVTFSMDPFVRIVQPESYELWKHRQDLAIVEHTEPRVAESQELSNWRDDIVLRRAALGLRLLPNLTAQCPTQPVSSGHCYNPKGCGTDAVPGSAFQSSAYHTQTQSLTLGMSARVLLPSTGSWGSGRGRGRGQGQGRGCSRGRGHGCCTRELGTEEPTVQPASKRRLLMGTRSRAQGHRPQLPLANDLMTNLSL

SMILES	Potency
C[n+]1cnc(-c2ccccc2)cc1-c1ccccc1	inconclusive: 28.2 µM [inhibitor, single point]
Cc1cc2nnc(SCC(=O)N(C)C3CCS(=O)(=O)C3)n2c2ccccc12 (stereo not given)	inconclusive: 31.6 µM [inhibitor, partial curve]
COCCn1c(C)cc(C(=O)COC(=O)/C=C/c2cccc(OC)c2)c1C	inconclusive: 28.2 µM [inhibitor, single point]
O=C(Cc1ccccc1)Nc1cccc(C(=O)O)c1O	inconclusive: 31.6 µM [inhibitor, partial curve]
COc1ccc(N=Nc2cc(C)c(O)c(CN3CCCCC3)c2)cc1	inconclusive: 39.8 µM [inhibitor, single point]
CCn1c(SCC(=O)Nc2ccccc2)nc2c1c(=O)n(C)c(=O)n2C	inactive
Cc1cc(C)c(C#N)c(SCc2nnc(-c3ccccc3)o2)n1	inconclusive: 8.91 µM [inhibitor, partial curve]
O=C1C2CCCCC2C(=O)N1c1cccc(OS(=O)(=O)c2ccccc2)c1 (stereo not given)	inactive
CCOC(=O)/C(=N/Nc1ccccc1)Sc1nnnn1-c1ccc(C)cc1	inactive
O=c1cc(-c2ccc(O)cc2O)oc2ccccc12	inconclusive: 20 µM [inhibitor, single point]
Cc1ccccc1OCCN1CCC(Cc2ccccc2)CC1	inconclusive: 31.6 µM [inhibitor, single point]
COc1cc(OC)c(OC)cc1NC(=O)CC1COc2ccccc2O1 (stereo not given)	inactive
COc1ccc(-c2csc(NC(=O)C3CCCO3)n2)cc1 (stereo not given)	inactive
O=C(N/N=C(\Cc1ncc[nH]1)c1ccccc1)c1ccncc1	inconclusive: 35.5 µM [inhibitor, single point]
CC(C)CN1C(=O)c2ccc(NC(=O)c3ccco3)cc2C1=O	inactive
C1COC(NC(C2CC2)C2CC2)=N1	inconclusive: 35.5 µM [inhibitor, single point]
O=C(/C=C/c1ccco1)NCC1OCCc2ccccc21 (stereo not given)	inconclusive: 17.8 µM [inhibitor, single point]
CCOC(=O)Cc1cc(=O)n2[nH]c(C)c(-c3ccc(OC)cc3)c2n1	inconclusive: 39.8 µM [inhibitor, single point]
CN1C(=O)C(CC(=O)N2CCN(C(c3ccccc3)c3ccccc3)CC2)N(C)C1=O (stereo not given)	inconclusive: 4.47 µM [inhibitor, partial curve]
Cc1c(C(=O)O)oc2c3c(ccc12)OCCO3	inconclusive: 28.2 µM [inhibitor, partial curve]
CC(C)CNC(=O)NC(=O)COC(=O)c1cccc(NS(=O)(=O)c2ccc(F)c(F)c2)c1	inconclusive: 39.8 µM [inhibitor, single point]
CCCC(=O)Nc1nn(C)c2nc3cc(C)ccc3cc12	inconclusive: 20 µM [inhibitor, partial curve]
COc1ccc(CCn2c(N)c(C(=O)NCc3ccco3)c3nc4ccccc4nc32)cc1	inconclusive: 28.2 µM [inhibitor, partial curve]

SMILES	Potency
CC(=O)Nc1ccc2c(c1)N(C(=O)CN(C)C)c1ccccc1CC2	inconclusive: 28.2 µM [inhibitor, single point]
O=C(Nc1ccccc1)c1sc2cc(C(F)(F)F)cnc2c1-c1cccs1	inconclusive: 31.6 µM [inhibitor, single point]
[N-]=C=C1C(=O)NC(=O)C([n+]2ccc(-c3ccncc3)cc2)C1c1ccccc1C(F)(F)F (stereo not given)	inconclusive: 28.2 µM [inhibitor, partial curve]
CSc1nc(-c2ccco2)nn1C(=O)Cc1ccccc1	inactive
O=C(NCCCCNC(=O)c1cccs1)c1cccs1	inactive
CN(C)c1ncccc1-c1nc2ccccc2s1	inconclusive: 25.1 µM [inhibitor, partial curve]
C=CCNC(=O)NC(=O)COC(=O)/C(C#N)=C/c1ccc(OC)cc1	inconclusive: 35.5 µM [inhibitor, single point]
COc1ccc2c(c1)c(/C=N/Nc1ccc(C(=O)O)cc1)c(C)n2C	inconclusive: 39.8 µM [inhibitor, single point]
c1ccc2nc(N3CCCC3)c(N3CCCC3)nc2c1	inconclusive: 35.5 µM [inhibitor, single point]
FC(F)(F)c1cc(-c2cccs2)nc(-n2cc(Cl)cn2)n1	inconclusive: 31.6 µM [inhibitor, partial curve]
CC1=C(C(=O)Nc2ccc(C)cc2C)C(c2ccc(Cl)cc2)n2nc(C(=O)OC(C)C)nc2N1 (stereo not given)	inactive
Nc1ccc(Cc2ccc(N)c(O)c2)cc1O	inconclusive: 28.2 µM [inhibitor, single point]
N#C/C(=C/c1ccc(-c2cc(C(=O)O)cc(C(=O)O)c2)o1)c1nc2ccccc2s1	inconclusive: 31.6 µM [inhibitor, single point]
Cc1ccc(S(=O)(=O)Nc2ccc(Br)cc2C(NCC(=O)O)c2ccccc2)cc1 (stereo not given)	inactive
CCN1C(=O)C(CC(=O)NC)N(NC(=O)c2ccccc2)C1=S (stereo not given)	inactive
COc1cc([N+](=O)[O-])cc(/C=N/NC(=O)C(C)Nc2cccc(C)c2)c1O (stereo not given)	active: 3.16 µM
CC(/C=N/n1c(-c2cc(C)[nH]n2)n[nH]c1=S)=C\c1ccco1	inactive
CC(=O)c1sc(NC(=O)c2ccc(C)c(C)c2)nc1C	inconclusive: 39.8 µM [inhibitor, single point]
Cc1ccc(-c2nnc(-c3ccc(Br)cc3)o2)o1	inconclusive: 3.98 µM [inhibitor, full curve]
O=C(O)C1C2C=CC(O2)C1C(=O)NCCc1cccc(Cl)c1 (stereo not given)	inconclusive: 22.4 µM [inhibitor, partial curve]
Cc1cc(C)cc(N(CC(=O)NC2CCCC2)C(=O)C2(C)CC(=O)N=C3C=CC=CN32)c1 (stereo not given)	inconclusive: 28.2 µM [inhibitor, partial curve]
COc1cc(/C=C/C(=O)OCC(=O)NCCc2ccccc2)cc(OC)c1OC	inconclusive: 31.6 µM [inhibitor, partial curve]

Reference: PubChem BioAssay AID2147 (National Center for Advancing Translational Sciences (NCATS), 2009)
